In all, about 420,000 compounds went through this assay and about 50,000 (12%) were called active. The shares of active, inactive and inconclusive entries below differ from those in the screen. Calls follow the shape of the dose curve; as a rule, active = well fitted inhibition curve with a large enough effect; inconclusive = small, poorly fitted or top-dose-only effect; inactive = flat fitted curve, though single readings scatter. No potency is given beside an inconclusive call; the fits are too rough.
assay: qHTS for Inhibitors of human tyrosyl-DNA phosphodiesterase 1 (TDP1): qHTS in cells in presence of CPT; conditions: chicken DT40 Tdp1-/-;hTDP1 cells + 20 nM CPT, ATP luminescence, 48 h; activity change, negative = growth inhibition: at 46.2 µM (top of the series); also: nearly all actives have a fitted effect of over 55% in size
Outline: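 Chicken DT40 Tdp1-/- cells complemented with human TDP1, 400 cells/well, exposed to compounds plus 20 nM camptothecin for at least 48 h at 37 C; viability read as ATP content by CellTiter-Glo luminescence.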
% is scaled to controls: 0 for no effect and ±100 for the full control effect; potency is read from the fitted curve at half-maximal effect; tags tell the direction and shape of the fitted curve.

Row | Compound | Potency | activity change, negative = growth inhibition
1 | Cc1ccc(NC(=O)C(NC2CCCc3ccccc32)c2ccccc2)cc1Cl (stereo unspecified) | active: 2.91 µM | –
2 | CCN(Cc1ccc(OC)c(COC)c1)CC1CCCN(CCc2cccc(F)c2)C1 (stereo unspecified) | inconclusive [inhibitor, single point] | –
3 | CS(=O)(=O)c1ccc(Cl)c(NC(=O)Nc2ccccc2)c1 | inconclusive [inhibitor, single point] | –
4 | O=C(O)C1CC(=O)N(Cc2ccc3c(c2)OCO3)C1 (stereo unspecified) | – | inactive: -2.77%
5 | CC(=O)c1ccc(-c2cc(F)cc3c2OC(CNC(=O)C(C)N2CCOCC2)C3)s1 (stereo unspecified) | inconclusive [inhibitor, single point] | –
6 | COc1cc(C(=O)NC(=S)Nc2ccc(Cl)cn2)cc(OC)c1OC | inconclusive [inhibitor, single point] | –
7 | CCOc1ccc2[nH]c(=O)c(CN(Cc3nnnn3CCc3ccccc3)CC3CCCO3)cc2c1 (stereo unspecified) | inconclusive [inhibitor, single point] | –
8 | Cc1nc(-c2nc(-c3c(C(=O)NNC(=O)Nc4ccccc4)noc3C)cs2)cs1 | inconclusive [inhibitor, single point] | –
9 | NC(=O)CC(NC(=O)Cc1ccc(Cl)cc1)c1ccc(N2CCC(Cc3ccccc3)CC2)c([N+](=O)[O-])c1 (stereo unspecified) | inconclusive [inhibitor, single point] | –
10 | CCCCC(=O)Nc1nc2c(OC)ccc(OC)c2s1 | – | inactive: -27.2%
11 | CCC(=O)Nc1sc2c(c1C(=O)Nc1ccc(Br)cc1)CCCCC2 | inconclusive [inhibitor, single point] | –
12 | CC1=CC(=O)C=CC1=Nc1ccc(N(C)C)cc1 | active: 1.03 µM | –
13 | CCOc1ccc(-c2nc(C#N)c(N3CCCCCC3)o2)cc1 | active: 20.6 µM | –
14 | CN(c1cccc(NC(=O)Nc2ccc(Cl)cc2)c1)S(C)(=O)=O | inconclusive [inhibitor, single point] | –
15 | CC1(C)CC(NC(=O)C2CCCCC2C(=O)O)CC(C)(C)N1 (stereo unspecified) | – | inactive: 5.21%
16 | O=C1N=C(N2CCOCC2)S/C1=C\c1ccccc1OS(=O)(=O)c1ccccc1 | active: 11.6 µM | –
17 | COc1ccc(C2CC(c3cccs3)=NN2C(=S)Nc2ccccc2)cc1OC (stereo unspecified) | – | inactive: 2.11%
18 | O=C(Nc1ccc(Oc2ccc(Br)cc2)cc1)C1=CC=CN2CCS(=O)(=O)N=C12 | – | inactive: -13.2%
19 | Cc1ccc(Cl)c(NC(=O)CN2CCNC(=O)C2)c1Cl | – | inactive: 4.64%
20 | CNC(=O)C[C@H]1C(=O)N(Cc2ccccc2)C[C@@H]1CSC | – | inactive: -20.4%
21 | CC(C)C(=O)Nc1sc2c(c1-c1nc3ccccc3[nH]1)CCCC2 | inconclusive [inhibitor, partial curve, poor fit] | –
22 | Cc1ccc(SCCCCN2CCNCC2)cc1 | active: 20.6 µM | –
23 | Cc1[nH]c2ccccc2c1/C=N/NC(=O)C1CC1(c1ccccc1)c1ccccc1 (stereo unspecified) | inconclusive [inhibitor, single point] | –
24 | CC(=O)C[n+]1cccc2cc(Cl)ccc21 | – | inactive: -19.3%

Row | Compound | Potency | activity change, negative = growth inhibition
25 | CO[C@H]1CN(C)C(=O)c2ccc(NC(=O)C3CCC3)cc2OC[C@H](C)N(Cc2ccc(F)cc2)C[C@@H]1C | inconclusive [inhibitor, single point] | –
26 | COc1cc(Cl)ccc1OCc1cc(C(=O)N2CCN(C3CCCCC3)CC2)no1 | inconclusive [inhibitor, partial curve] | –
27 | CC1=CC(C)(C)N(C(=O)CNC2CCCCC2)c2cc(C)ccc21 | inconclusive [inhibitor, single point] | –
28 | Cc1ccc(NC(=O)CCN2C(=O)c3ccccc3Sc3ncccc32)c(Cl)c1 | active: 18.4 µM | –
29 | COc1ccc(COCC(O)CN2CCCCC2)cc1OC (stereo unspecified) | – | inactive: -0.0498%
30 | COc1cc(OC)cc(C(=O)NCCc2csc(-c3ccc(C(F)(F)F)cc3)n2)c1 | inconclusive [inhibitor, single point] | –
31 | CN1CCN(c2ccc(Cl)cc2NS(=O)(=O)c2ccccc2Cl)CC1 | – | inactive: -14.7%
32 | CCOC(=O)c1[nH]c(C)c(C(=O)Nc2ccc(C)c(F)c2)c1C | active: 10 µM | –
33 | O=C(CSc1nc2ccccc2s1)Nn1cnnc1 | active: 18.4 µM | –
34 | COc1ccc(C(=O)NC(=S)NNC(=O)c2ccccc2C)cc1 | inconclusive [inhibitor, single point] | –
35 | COc1ccc(C(C(=O)NC2CCCC2)n2c(CSCCOc3ccccc3)nc3ccccc32)cc1 (stereo unspecified) | inconclusive [inhibitor, single point] | –
36 | Cc1ccc(C)c(NC(=O)Cc2coc3cc4c(cc23)CCC4)c1 | – | inactive: -11.9%
37 | CCS(=O)(=O)N1CCc2cc(C(=O)NCc3ccccc3Cl)ccc21 | inconclusive [inhibitor, partial curve, poor fit] | –
38 | CSc1nc(Cl)c(Cc2ccc(OC(C)C)cc2)c(N2CCOCC2)n1 | inconclusive [inhibitor, single point] | –
39 | CC1=CCC(C(C)(C)O)CC1 (stereo unspecified) | – | inactive: 3.79%
40 | N#Cc1c(NC(=O)C2C3C=CC(C3)C2C(=O)O)sc2c1CCCCC2 (stereo unspecified) | inconclusive [inhibitor, single point] | –
41 | Cc1cccc(C(=O)N2CCCCCC2)c1[N+](=O)[O-] | inconclusive [inhibitor, single point] | –
42 | Cc1ccc(-c2n[nH]c(=O)c3ccccc23)cc1S(=O)(=O)NCCO | – | inactive: -20.7%
43 | Cn1nc(N2CCN(S(=O)(=O)c3ccccc3)CC2)c(=O)n(C)c1=O | inconclusive [inhibitor, partial curve] | –
44 | Cc1ccc(F)cc1NC(=O)CSc1nc(Nc2ccccc2)nc(N2CCOCC2)n1 | inconclusive [inhibitor, single point] | –
45 | CCc1ccc(N2C(=O)C(Cl)=C(Nc3ccc(C(=O)N4CCCC4)cc3)C2=O)cc1 | – | inactive: -27.6%
46 | COC(=O)CC1C(=O)NC2CCCCC2N1C(=O)CCl (stereo unspecified) | inconclusive [inhibitor, single point] | –
47 | O=C(NC1CCCCC1)C(c1ccco1)N(C(=O)c1csnn1)c1ccc(Cl)cc1 (stereo unspecified) | inconclusive [inhibitor, single point] | –
48 | Clc1ccc(Cn2cnc3ccccc32)cc1 | inconclusive [inhibitor, single point] | –

Row | Compound | Potency | activity change, negative = growth inhibition
49 | COCC(=O)N1CCC(Oc2ccc(C(=O)N[C@H](C(=O)OC)C(C)C)cc2)CC1 | – | inactive: -6.39%
50 | Cc1cc(OCC(=O)Nc2ccncc2)ccc1Cl | inconclusive [inhibitor, single point] | –
51 | O=C(O)CCC(=O)NNC(=O)c1ccc([N+](=O)[O-])cc1 | inconclusive [inhibitor, single point] | –
52 | O=C(CSc1nnnn1-c1ccc(Cl)cc1)Nc1cccnc1Cl | active: 23.1 µM | –
53 | O=C(c1cc2ccc3cccnc3c2[nH]1)N1CCN(c2cccc(Cl)c2)CC1 | inconclusive [inhibitor, single point] | –
54 | COc1ccc(C(=O)C(C)Oc2cccc(NC(=O)c3cccc([N+](=O)[O-])c3)c2)cc1 (stereo unspecified) | inconclusive [inhibitor, single point] | –
55 | CC[C@]12c3[nH]c4ccccc4c3CCN1C(=O)C(CC(=O)NCCCN(C)C)C[C@@H]2C(=O)N1CCN(C(=O)c2ccco2)CC1 (stereo partly specified) | – | inactive: -3.36%
56 | Cc1ccc(-n2nc3c(=O)n(C(C)C(=O)NCc4ccccc4C)nc(C)c3c2C)cc1 (stereo unspecified) | inconclusive [inhibitor, single point] | –
57 | CCOC(=O)C1=CC[C@@H](c2cc3ccc(OC)cc3n2C)N(S(=O)(=O)c2ccc(C)cc2)[C@H]1C(=O)OCC | inconclusive [inhibitor, full curve] | –
58 | O=C(C1CCC(=O)N(C2CCCC2)C1)N1CCC(Oc2ccccc2Cl)CC1 (stereo unspecified) | inconclusive [inhibitor, single point] | –
59 | COc1cc(NC(=O)CCc2nnc3ccc(N4CCC(C)CC4)nn23)cc(OC)c1 | – | inconclusive: -33.2% [inhibitor]
60 | COc1ccc(OC)c(NC(=O)CSc2ncnc3sc(C)cc23)c1 | inconclusive [inhibitor, single point] | –
61 | Cc1c(OCC(=O)N2CCC(C(N)=O)CC2)ccc2c3c(c(=O)oc12)CCCC3 | – | inactive: -14.5%
62 | C=CC(C1=CC(=O)C(OC)=CC1=O)c1ccc(O)cc1 (stereo unspecified) | inconclusive [inhibitor, single point] | –
63 | CCOc1ccccc1-n1nnnc1SCC(=O)NC(=O)NCc1ccco1 | inconclusive [inhibitor, single point] | –
64 | CC(=O)N1c2ccc(S(=O)(=O)NCCC(=O)N(C)Cc3ccccc3)cc2CC1C (stereo unspecified) | inconclusive [inhibitor, single point] | –
65 | Cc1cc(C)n2c(Nc3ccc4c(c3)OCCO4)c(C3CC3)nc2n1 | inconclusive [inhibitor, single point] | –
66 | c1ccc2c(c1)C(=NC1CCCCC1)NC2=NC1CCCCC1 | active: 18.4 µM | –
67 | Cc1nc(N2CCOCC2)[nH]c(=O)c1CCC(C)C | inconclusive [inhibitor, partial curve, poor fit] | –
68 | C[C@@H]1COc2cccc(N3CCC[C@@H]3CO)c2S(=O)(=O)N1 | – | inactive: -10.7%
69 | CN(C)S(=O)(=O)c1cccc(NC(=O)c2cc([N+](=O)[O-])ccc2N2CCCCC2)c1 | inconclusive [inhibitor, single point] | –
70 | CC(C)CC1=C/C(=C/c2ccc(-c3ccccc3)o2)C(=O)O1 | inconclusive [inhibitor, single point] | –
71 | Cc1cc2n(n1)CCC(=O)N2Cc1ccc(C(=O)Nc2cccc(C(F)(F)F)c2)cc1 | active: 14.6 µM | –
